In the BET-seq Pho4 binding data (Le et al. 2018):
The other results are listed elsewhere or left out. Values were computed here from the reads of four pooled replicates and scatter widely.

molecular target: T1, Pho4 (S. cerevisiae) (UniProt P07270); assay: relative binding free energy (BET-seq); higher = weaker binding; conditions: reference: library average
T1 sequence: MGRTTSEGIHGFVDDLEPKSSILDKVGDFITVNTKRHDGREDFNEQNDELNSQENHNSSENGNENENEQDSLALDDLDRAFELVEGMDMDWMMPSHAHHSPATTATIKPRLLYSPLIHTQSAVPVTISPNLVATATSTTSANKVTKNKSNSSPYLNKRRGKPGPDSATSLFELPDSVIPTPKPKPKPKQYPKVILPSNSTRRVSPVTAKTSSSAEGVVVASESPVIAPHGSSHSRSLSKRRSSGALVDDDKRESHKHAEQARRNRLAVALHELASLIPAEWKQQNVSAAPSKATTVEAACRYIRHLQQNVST

Row | Sequence | relative binding free energy [kcal/mol]
1 | GTGATCACGTGATCGG | 0.27
2 | GGTATCACGTGGTCAG | 0.19
3 | TTTGTCACGTGTATTT | 0.12
4 | TTGGTCACGTGACTAT | 0.23
5 | TAGAACACGTGGCGTT | -0.05
6 | GTGATCACGTGGATAG | 0.04
7 | GTTTGCACGTGAAAGA | 0.16
8 | GTGTTCACGTGCATAG | 0.17
9 | TATGGCACGTGTGATA | -0.07
10 | TTCTTCACGTGCATAT | 0.3
11 | GTTGGCACGTGCGGAA | -0.27
12 | GTGTTCACGTGTATGA | 0.24
13 | AGACGCACGTGTGAGG | 0.03
14 | TAGGACACGTGTTCGG | 0
15 | TGCTACACGTGCGGGG | -0.08
16 | AGTGTCACGTGTGGTC | 0.03
17 | TCGGACACGTGGGTGT | -0.04
18 | AATAGCACGTGAGTAG | 0.25
19 | TACGTCACGTGGGGGT | -0.09
20 | CGGGGCACGTGTGGCG | 0.04
21 | TGCTTCACGTGTGGGC | 0.18
22 | TAGGGCACGTGTTGTT | -0.08
23 | TGGGTCACGTGAGAAA | 0.16
24 | TGTACCACGTGTAGTG | -0.18
25 | GGGTGCACGTGTAAGA | 0.12

Row | Sequence | relative binding free energy [kcal/mol]
26 | TGTTGCACGTGCATTG | 0.07
27 | AGGGGCACGTGATGTA | -0.03
28 | CGGAGCACGTGGGGCA | -0.26
29 | GTTTCCACGTGGTTTT | 0.11
30 | TAAAGCACGTGGTGTA | -0.15
31 | ATTCTCACGTGTGTGC | 0.19
32 | ATTTGCACGTGTGCGC | 0.04
33 | GTGTGCACGTGAGGCA | 0.14
34 | CTTTGCACGTGTTGCT | -0.13
35 | AGTGTCACGTGTGAAA | 0.33
36 | AGGTACACGTGGAGTC | 0.06
37 | GGTACCACGTGGCGGT | -0.07
38 | CGTTTCACGTGGCTTG | 0.23
39 | AGGGCCACGTGAGGTG | 0.11
40 | ATTCTCACGTGTTGGG | 0.22
41 | CGGCGCACGTGGGAAG | -0.05
42 | AGGTTCACGTGACGTT | 0.33
43 | TGCGGCACGTGAGTCG | 0.08
44 | TGTGTCACGTGTATAC | 0.1
45 | TTCTTCACGTGATGGA | 0.14
46 | AGTATCACGTGCTTTT | 0.09
47 | GTATACACGTGAGGTT | 0.38
48 | GGGGTCACGTGGTGCC | 0.15
49 | AGAGTCACGTGTGTAT | 0.21
50 | GTGTTCACGTGTGATC | 0.2

Row | Sequence | relative binding free energy [kcal/mol]
51 | GTTTGCACGTGTCTTA | 0.12
52 | GTACTCACGTGTATGG | 0.18
53 | AGAAGCACGTGTTTGA | -0.12
54 | AGGTTCACGTGTGGCG | 0.21
55 | CTAATCACGTGCGGGG | 0.26
56 | AGGTTCACGTGCAGTG | 0.19
57 | TATAGCACGTGGAAAT | 0.27
58 | GTTATCACGTGGATTT | 0.29
59 | AATAACACGTGTTAGG | -0.04
60 | TGGATCACGTGGAGTA | 0.27
61 | TTAGACACGTGGGGAA | -0.11
62 | GAATGCACGTGGATGA | 0.09
63 | TGGTACACGTGTATGA | 0.17
64 | TATGGCACGTGTTAAA | -0.09
65 | GGTCACACGTGTTTGA | 0.22
66 | GATGGCACGTGGAGGA | -0.08
67 | TGCGTCACGTGGAGGA | 0.04
68 | AGGATCACGTGGTCGG | 0.02
69 | TTTAACACGTGTGCTA | -0.06
70 | TATGACACGTGGTCAG | -0.03
71 | TTTGGCACGTGCGGAG | -0.1
72 | AGGGGCACGTGGTTCA | -0.26
73 | TGCTTCACGTGGCAGT | 0.17
74 | AGGTGCACGTGGCATA | -0.19
75 | GTGGGCACGTGCTGAT | 0.06

Row | Sequence | relative binding free energy [kcal/mol]
76 | ATATTCACGTGCAGTT | 0.1
77 | ATAAGCACGTGAGAGT | 0.18
78 | GCTAGCACGTGGTTGG | 0.06
79 | ATTAACACGTGTAAAT | 0.27
80 | TTCAGCACGTGTTTAT | -0.01
81 | AATTTCACGTGATGGG | 0.32
82 | TTTGGCACGTGGGTTA | -0.12
83 | TTGGGCACGTGATGAG | 0.07
84 | TGTACCACGTGGTCGT | -0.2
85 | TTGTACACGTGTTAGT | 0.05
86 | TGGATCACGTGGGTTC | 0.04
87 | TAAATCACGTGAGGGT | 0.22
88 | GTTGGCACGTGTGTTA | 0.08
89 | TGACTCACGTGCGTGG | 0.07
90 | TGATGCACGTGGGCAG | -0.28
91 | GTGTGCACGTGTCTCG | 0.03
92 | AGGGGCACGTGAGTTT | 0.11
93 | GGAAGCACGTGGGTGC | -0.23
94 | AGTTGCACGTGACGTT | 0.05
95 | CGTGTCACGTGGGTGG | 0.02
96 | TTTAACACGTGAGCGG | 0.09
97 | TCGTACACGTGGTAGT | -0.1
98 | GGAATCACGTGATTGG | 0.45
99 | CGAGACACGTGTTAGT | 0.1
100 | GCGTTCACGTGTGTGC | 0.15

Row | Sequence | relative binding free energy [kcal/mol]
101 | AGCGGCACGTGGCGAT | -0.04
102 | ATGTTCACGTGATCAT | 0.24
103 | AAAGCCACGTGGGGTT | -0.28
104 | TGTCGCACGTGTGGTA | -0.09
105 | ATTTTCACGTGTAGTC | 0.27
106 | TCTTGCACGTGGGTTC | -0.13
107 | AAAGTCACGTGGAGCG | 0.22
108 | AAGTTCACGTGTTGCT | 0.21
109 | TTGTTCACGTGCGGCA | 0.2
110 | TTTATCACGTGTCGTA | 0.19
111 | TCTGGCACGTGATTTT | -0.01
112 | GGGTACACGTGGTCGG | 0.03
113 | GTGGTCACGTGAGGTC | 0.22
114 | AAAAGCACGTGATGTT | 0.05
115 | GGGTTCACGTGGAAAA | 0.36
116 | GCGGACACGTGGGTTT | 0
117 | GTATACACGTGAGGCG | 0.3
118 | AGTGGCACGTGAAAAG | 0.06
119 | AGGTTCACGTGGCGTG | 0.22
120 | TCTGTCACGTGTGTTC | 0.01
121 | TGTTGCACGTGGTAAT | -0.03
122 | ATCGGCACGTGAGGAT | 0.21
123 | TGGTTCACGTGTGTAC | 0.11
124 | TAGTTCACGTGGTGTA | 0.07
125 | TTTATCACGTGGTATT | 0.14

Row | Sequence | relative binding free energy [kcal/mol]
126 | TTGGGCACGTGGGATT | -0.1
127 | CTCTACACGTGGTGGG | -0.03
128 | GGTGTCACGTGTGGCC | 0.23
129 | TGGCTCACGTGCGGTT | 0.27
130 | ATGTCCACGTGGAGTT | 0.09
131 | TGAATCACGTGGGGTT | 0.06
132 | TCTTACACGTGTGCGG | 0.18
133 | TTCATCACGTGGGGCA | 0.08
134 | TTAAGCACGTGTTATG | -0.16
135 | GTAGGCACGTGCGGGC | -0.31
136 | GTCGTCACGTGGTCGT | -0.05
137 | TTGCCCACGTGTGTGG | -0.13
138 | AGCTTCACGTGTGTGC | 0.24
139 | AGGTGCACGTGGGGTG | -0.15
140 | TTAGGCACGTGTACAG | -0.18
141 | GTGGTCACGTGGCGAT | 0.07
142 | TATATCACGTGGAGGA | 0.05
143 | TCGAGCACGTGGTTTT | -0.21
144 | GTGTGCACGTGATTTG | 0.12
145 | TTGTTCACGTGCTGTC | 0.1
146 | CGTAGCACGTGTTCGT | -0.09
